Tested on: Huh7 cells that stably maintain a subgenomic HCV replicon (S22.3 cell-line)
Assay: Cell based HCV RNA replication assay (S22.3 replicon cells, real-time RT-PCR)
Conditions: Hepatitis C virus
[1] = Huh-7, 72 h, S22.3 cells, 72 hours incubation, HCV RNA by RT-PCR

Compound | EC50 (Huh-7, Table 6) | EC50 [1] | further results
Cn1c(-c2csc(NC(=O)C(C)(C)C)n2)c(C2CCCC2)c2ccc(C(=O)NC(C)(C)C(=O)Nc3ccc(/C=C/C(=O)O)cc3)cc21 [Entry 6029] | < 500 nM | – | –
Cn1c(-c2ccccn2)c(C2CCCCC2)c2ccc(C(=O)NC(C)(C)C(=O)Nc3ccc(NC(=O)C(=O)O)cc3)cc21 [Entry 2094] | – | 500 to 5000 nM | –
Cc1cccc(-c2c(C3CCCCC3)c3ccc(C(=O)NC(C)(C)C(=O)Nc4ccc(/C=C/C(=O)O)cc4)cc3n2C)n1 [Entry 2098] | – | < 500 nM | –
O=C(O)Cn1ccc2cc(NC(=O)C3(NC(=O)c4ccc5c(C6CCCCC6)c(-c6ccoc6)[nH]c5c4)CCCC3)ccc21 [Entry 2008] | – | 500 to 5000 nM | –
Cc1ccc(-c2c(C3CCCC3)c3ccc(C(=O)NC4(C(=O)Nc5ccc6c(c5)cc(C(=O)O)n6C)CCC4)cc3n2C)cn1 [Entry 7035] | – | – | EC50 (Huh-7, Table 7): < 500 nM
Cn1c(-c2csc(-c3ccccc3)n2)c(C2CCCC2)c2ccc(C(=O)NC(C)(C)C(=O)Nc3ccc(/C=C/C(=O)O)cc3)cc21 [Entry 6012] | < 500 nM | – | –
Cn1c(-c2ccccn2)c(C2CCCCC2)c2ccc(C(=O)NC(C)(C)C(=O)Nc3ccc(/C=C/C(=O)O)cc3)cc21 [Entry 2087] | – | < 500 nM | –
Cc1ccc(-c2c(C3CCCC3)c3ccc(C(=O)N[C@@]4(C(=O)Nc5ccc(/C=C/C(=O)O)cc5)CCN(C)C4)cc3n2C)cn1 [Entry 6115] | < 500 nM | – | –
Cn1c(-c2ccccn2)c(C2CCCC2)c2ccc(C(=O)NC3(C(=O)Nc4ccc(-c5ccc(C(=O)O)s5)cc4)CCC3)cc21 [Entry 7004] | – | – | EC50 (Huh-7, Table 7): < 500 nM
Cn1c(-c2ccc(C(F)(F)F)cn2)c(C2CCCC2)c2ccc(C(=O)NC3(C(=O)Nc4ccc(/C=C/C(=O)O)cc4)CCCC3)cc21 [Entry 6042] | < 500 nM | – | –
CN1CCC(NC(=O)c2ccc3c(C4CCCC4)c(-c4cccc(N)n4)n(C)c3c2)(C(=O)Nc2ccc(/C=C/C(=O)O)cc2)CC1 [Entry 6059] | < 500 nM | – | –
Cn1c(-c2cccc(N)n2)c(C2CCCC2)c2ccc(C(=O)NC3(C(=O)Nc4ccc(-c5ccc(C(=O)O)o5)cc4)CCC3)cc21 [Entry 7024] | – | – | EC50 (Huh-7, Table 7): < 500 nM
CN1CC[C@@](NC(=O)c2ccc3c(C4CCCC4)c(-c4ccccn4)n(C)c3c2)(C(=O)Nc2ccc(/C=C/C(=O)O)cc2)C1 [Entry 7058] | – | – | EC50 (Huh-7, Table 7): < 500 nM
Cn1c(-c2nc3ccccc3[nH]2)c(C2CCCCC2)c2ccc(C(=O)NC(C)(C)C(=O)Nc3ccc(/C=C/C(=O)O)cc3)cc21 [Entry 2109] | – | 500 to 5000 nM | –
Cn1c(-c2cccc3cccnc23)c(C2CCCCC2)c2ccc(C(=O)NC(C)(C)C(=O)Nc3ccc(/C=C/C(=O)O)cc3)cc21 [Entry 2082] | – | < 500 nM | –
Cc1ccc(-c2c(C3CCCC3)c3ccc(C(=O)NC4(C(=O)Nc5ccc(/C=C/C(=O)O)cc5)CCCC4)cc3n2C)nc1 [Entry 6060] | < 500 nM | – | –
Cn1c(-c2ccncc2)c(C2CCCC2)c2ccc(C(=O)NC3(C(=O)Nc4ccc(-c5ccc(C(=O)O)o5)cc4)CCCC3)cc21 [Entry 7041] | – | – | EC50 (Huh-7, Table 7): < 500 nM
Cn1c(-c2ccccn2)c(C2CCCCC2)c2ccc(C(=O)NC3(C(=O)Nc4ccc5[nH]c(C(=O)O)c(I)c5c4)CCCNC3)cc21 (centres unmarked) [Entry 2110] | – | < 500 nM | –
Cc1c(C(N)=O)sc2ccc(NC(=O)C3(NC(=O)c4ccc5c(C6CCCCC6)c(-c6ccccn6)n(C)c5c4)CCC3)cc12 [Entry 2112] | – | < 500 nM | –
Cn1c(-c2csc(CS(C)(=O)=O)n2)c(C2CCCC2)c2ccc(C(=O)NC(C)(C)C(=O)Nc3ccc(/C=C/C(=O)O)cc3)cc21 [Entry 6024] | < 500 nM | – | –
CNc1nc(-c2c(C3CCCC3)c3ccc(C(=O)NC4(C(=O)Nc5ccc(/C=C/C(=O)O)cc5)CCCC4)cc3n2C)cs1 [Entry 6087] | < 500 nM | – | –
Cn1c(-c2csc(NC(=O)OC3CCCC3)n2)c(C2CCCC2)c2ccc(C(=O)NC(C)(C)C(=O)Nc3ccc(/C=C/C(=O)O)cc3)cc21 [Entry 6030] | < 500 nM | – | –

Compound | EC50 (Huh-7, Table 6) | EC50 [1] | further results
Cc1ccc(-c2c(C3CCCC3)c3ccc(C(=O)NC4(C(=O)Nc5ccc(-c6ccc(C(=O)O)o6)cc5)CCC4)cc3n2C)nc1 [Entry 7028] | – | – | EC50 (Huh-7, Table 7): < 500 nM
Cn1c(-c2cocn2)c(C2CCCC2)c2ccc(C(=O)NC3(C(=O)Nc4ccc(/C=C/C(=O)O)cc4)CCCC3)cc21 [Entry 6098] | < 500 nM | – | –
CN1CC[C@@](NC(=O)c2ccc3c(C4CCCC4)c(-c4ccccn4)n(C)c3c2)(C(=O)Nc2ccc(-c3cncnc3)cc2)C1 [Entry 7069] | – | – | EC50 (Huh-7, Table 7): < 500 nM
CN1CC[C@@](NC(=O)c2ccc3c(C4CCCCC4)c(-c4ccccn4)n(C)c3c2)(C(=O)Nc2ccc(/C=C/C(=O)O)cc2)C1 [Entry 2116] | – | < 500 nM | –
Cn1c(-c2csc(CO)n2)c(C2CCCC2)c2ccc(C(=O)NC(C)(C)C(=O)Nc3ccc(/C=C/C(=O)O)cc3)cc21 [Entry 6026] | < 500 nM | – | –
O=C(O)/C=C/c1ccc(NC(=O)C2(NC(=O)c3ccc4c(C5CCCCC5)c(-c5ccoc5)n(Cc5ccccc5)c4c3)CCCC2)cc1 [Entry 2040] | – | < 500 nM | –
CN1CCCC(NC(=O)c2ccc3c(C4CCCCC4)c(-c4ccccn4)n(C)c3c2)(C(=O)Nc2ccc(/C=C/C(=O)O)cc2)C1 (centres unmarked) [Entry 2114] | – | < 500 nM | –
CN1CCC(NC(=O)c2ccc3c(C4CCCC4)c(-c4ccccn4)n(C)c3c2)(c2nc3ccc(C=CC(=O)O)cc3[nH]2)CC1 [Entry 1020] | – | < 500 nM | –
Cn1c(C(=O)O)cc2cc(NC(=O)C3(NC(=O)c4ccc5c(C6CCCC6)c(-c6ccc(N)cc6)n(C)c5c4)CCC3)ccc21 [Entry 7051] | – | – | EC50 (Huh-7, Table 7): < 500 nM
O=C(O)/C=C/c1ccc(NC(=O)C2(NC(=O)c3ccc4c(C5CCCCC5)c(-c5ccsc5)[nH]c4c3)CCCC2)cc1 [Entry 2038] | – | < 500 nM | –
CC(NC(=O)c1ccc2c(C3CCCC3)c(-c3ccccn3)n(C)c2c1)c1nc2ccc(C=CC(=O)O)cc2[nH]1 (centres unmarked) [Entry 1017] | – | 500 to 5000 nM | –
CN1CCC(NC(=O)c2ccc3c(C4CCCCC4)c(-c4ccoc4)[nH]c3c2)(C(=O)Nc2ccc(/C=C/C(=O)O)cc2)CC1 [Entry 2052] | – | < 500 nM | –
Cn1c(-c2csc(NC(=O)CC(C)(C)C)n2)c(C2CCCC2)c2ccc(C(=O)NC(C)(C)C(=O)Nc3ccc(/C=C/C(=O)O)cc3)cc21 [Entry 6007] | < 500 nM | – | –
COc1cccc(-c2c(C3CCCC3)c3ccc(C(=O)NC4(C(=O)Nc5ccc(/C=C/C(=O)O)cc5)CCCC4)cc3n2C)n1 [Entry 6044] | < 500 nM | – | –
CN(C)Nc1nc(-c2c(C3CCCC3)c3ccc(C(=O)NC(C)(C)C(=O)Nc4ccc(/C=C/C(=O)O)cc4)cc3n2C)cs1 [Entry 6032] | < 500 nM | – | –
CN(C)CCC(NC(=O)c1ccc2c(C3CCCC3)c(-c3ccccn3)n(C)c2c1)c1nc2ccc(C=CC(=O)O)cc2[nH]1 (centres unmarked) [Entry 1025] | – | 500 to 5000 nM | –
CN1CCC(NC(=O)c2ccc3c(C4CCCC4)c(-c4ccc(N)cc4)n(C)c3c2)(C(=O)Nc2ccc(/C=C/C(=O)O)cc2)CC1 [Entry 6054] | < 500 nM | – | –
C=Cc1c(C2CCCC2)c2ccc(C(=O)NC3(C(=O)Nc4ccc(/C=C/C(=O)O)cc4)CCCC3)cc2n1C [Entry 6099] | < 500 nM | – | –
C/C(=C\c1ccc(NC(=O)C2(NC(=O)c3ccc4c(C5CCCC5)c(-c5nccs5)n(C)c4c3)CCC2)cc1)C(=O)O [Entry 7049] | – | – | EC50 (Huh-7, Table 7): < 500 nM
Cc1c(C(=O)O)sc2ccc(NC(=O)C3(NC(=O)c4ccc5c(C6CCCCC6)c(-c6ccccn6)n(C)c5c4)CCC3)cc12 [Entry 2111] | – | < 500 nM | –
C[C@@H](NC(=O)c1ccc2c(C3CCCCC3)c(-c3ccoc3)[nH]c2c1)C(=O)Nc1ccc(/C=C/C(=O)O)cn1 [Entry 2009] | – | 500 to 5000 nM | –
Cn1c(-c2cccc(N)n2)c(C2CCCC2)c2ccc(C(=O)NC3(C(=O)Nc4ccc(-c5ccc(C(=O)O)o5)cc4)CCCC3)cc21 [Entry 7025] | – | – | EC50 (Huh-7, Table 7): < 500 nM
